Assay results reported in the supplement of paper PMC10126150.
Sequences with one replicate were seen in a single cluster, so their values are uncertain.

tested on: ATP; test: switch fluorescence ratio, 500 uM ATP over buffer (Cy3 cluster intensity, sum of 5 cycles each) (fold (ratio)); higher = stronger signal-on switching upon ATP binding; sequences stand for … in TCGTCGGCAGCGTCAGATGTGTATAAGAGACAGTTTTTTTTTTTTTTTTTTTTTTTTT…TC; settings: aptamer strand: ATP DNA aptamer (quencher-CACCTGGGGGAGTATTGCGGAGGAAGG + anchor), 100 nM annealed; ATP concentration: 500 uM; one replicate
Procedure, shortened: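 For every switch-domain sequence, the fluorescence ratio is the mean of per-cluster values, each being summed target-cycle Cy3 intensity over summed buffer-cycle Cy3 intensity. Clusters outside 100-1000 RFU were excluded. On a modified Illumina MiSeq flow-cell, the Cy3-labelled switching-strand clusters were annealed to 100 nM quencher-labelled ATP aptamer, imaged in selection buffer and then after 15 min with 500 uM ATP at 22 °C. Five such cycles were run, with NaOH stripping and re-annealing between them.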
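Further: ATP exposure 15 min at 22 °C before imaging.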

Sequence | switch fluorescence ratio
ACGTGGTTAC | 1.26
ACGTGTAAAG | 0.994
ACGTGTCGCG | 1.04
ACGTGTTCCT | 1.01
ACGTTCCAAA | 0.997
ACGTTCGAAG | 1.06
ACGTTCTAAA | 1.01
ACGTTGACGC | 1.09
ACGTTGAGTC | 1.02
ACGTTGCACG | 1.01
ACGTTGCGTG | 1.05
ACGTTGGTAG | 0.982
ACGTTTCGTA | 0.986
ACGTTTGAAT | 1.02
ACGTTTGCGC | 0.995
ACGTTTGGGA | 1.04
ACTAAAATTC | 1.22
ACTAACGACA | 1.31
ACTAAGGGAT | 1.01
ACTAAGTAGC | 1.03
ACTAATTTAC | 1.15
ACTACATAG | 1.04
ACTACATGCC | 1.1
ACTACCACA | 1.3
ACTACGCCTG | 1.26
ACTACGGCAC | 2.15

Sequence | switch fluorescence ratio
ACTACTAC | 1.23
ACTAGCTTTG | 0.98
ACTAGGAGTC | 0.943
ACTAGGCCGG | 1.01
ACTAGGCCTG | 0.962
ACTAGGCTCA | 0.988
ACTAGGGGTC | 0.946
ACTAGGGT | 0.954
ACTAGGTGG | 0.976
ACTATACCAT | 1.3
ACTATATCCT | 1.11
ACTATATTCT | 1.02
ACTATCAGCA | 0.994
ACTATCATCC | 1.02
ACTATCCGGC | 1.02
ACTATTAATT | 1.1
ACTATTTAAT | 1
ACTATTTGAA | 1
ACTATTTTCT | 0.976
ACTCAAAAAC | 1.81
ACTCAAGTTG | 1.04
ACTCAATGAC | 1.37
ACTCACAGTT | 1.21
ACTCACCAC | 1.4
ACTCACCTCC | 1.55
ACTCACTGTG | 1.16

Sequence | switch fluorescence ratio
ACTCAGATGA | 1.02
ACTCATGATA | 1.03
ACTCCACTAG | 2.36
ACTCCCCGAT | 1.14
ACTCCCCTGC | 3.31
ACTCCCTGTT | 1.28
ACTCCGATC | 4.11
ACTCGAAAAG | 1.01
ACTCGCGGCT | 1.06
ACTCGCTCAC | 3.57
ACTCGGATGT | 1.08
ACTCGGGCGA | 1.2
ACTCGGTAGC | 1.09
ACTCGTTAAT | 1.05
ACTCTATAGT | 1.08
ACTCTCTGGC | 1.21
ACTCTGCA | 3.43
ACTCTTAGGA | 0.989
ACTCTTGGAC | 1.09
ACTCTTGGGA | 1
ACTCTTTAT | 0.998
ACTGAATATG | 1.04
ACTGAATGTT | 1.04
ACTGACCTAC | 1.43
ACTGACTTTT | 1.1
ACTGAGCTT | 1.01

Sequence | switch fluorescence ratio
ACTGAGTGG | 0.972
ACTGATACAG | 1.03
ACTGATGGA | 1
ACTGATGGTT | 1.04
ACTGCAC | 1.63
ACTGCACCC | 1.53
ACTGCAGTCG | 1
ACTGCATGTT | 1.05
ACTGCCGTGT | 1.07
ACTGCCTGCA | 1.09
ACTGCGGGGG | 1.01
ACTGCTCCAA | 1.05
ACTGCTCCTT | 1.03
ACTGCTTGAC | 1.01
ACTGGACTTT | 1.14
ACTGGCACTT | 1.15
ACTGGCCATC | 0.999
ACTGGCTTTG | 0.995
ACTGGGACTA | 1.15
ACTGGGATTA | 0.974
ACTGGGTATG | 1
ACTGGGTCTG | 0.942
ACTGGTAAAC | 0.997
ACTGGTACGA | 1.13
ACTGGTCCGG | 1.04
ACTGGTGTTG | 1.01

Sequence | switch fluorescence ratio
ACTGTATCGA | 1.16
ACTGTCAATC | 1.42
ACTGTCGAAG | 1
ACTGTCTTGA | 0.934
ACTGTGATCT | 1.03
ACTGTGCGGC | 1.07
ACTGTGTGAC | 1.06
ACTGTTGACG | 1.04
ACTTAACTGG | 1.14
ACTTAACTGT | 1.15
ACTTAACTTA | 1.1
ACTTACAAGA | 1.18
ACTTACATCG | 1.13
ACTTACCCCA | 1.22
ACTTACGATG | 1.41
ACTTACTCGT | 1.17
ACTTACTGAT | 1.19
ACTTAGAACT | 1.03
ACTTATATTT | 0.983
ACTTATCGCA | 1.74
ACTTATTCCG | 1.05
ACTTCAAGAC | 1.74
ACTTCCGTTG | 1.59
ACTTCCTAAA | 1.09
ACTTCCTAGG | 1.89
ACTTCGACTC | 1.16

Sequence | switch fluorescence ratio
ACTTCGCCGG | 1.11
ACTTCGGACG | 1.27
ACTTCGGGGT | 1.07
ACTTCGTTGG | 0.947
ACTTCTACAT | 1.21
ACTTCTTGAC | 1.09
ACTTGACGCT | 1.07
ACTTGCTTCG | 1.22
ACTTGGACGG | 1.1
ACTTGGTGCC | 1.02
ACTTGTACAC | 1.23
ACTTGTCACG | 1.12
ACTTGTGCAA | 1.36
ACTTGTGTTT | 0.978
ACTTTACATT | 1.3
ACTTTACGGA | 1.3
ACTTTAGATA | 0.995
ACTTTAGTT | 0.975
ACTTTATGAT | 1
ACTTTCCCTG | 1.16
ACTTTCGTCT | 1.08
ACTTTCTAC | 1.13
ACTTTCTATA | 1.02
ACTTTCTTC | 0.993
ACTTTGATTC | 1.01
ACTTTGTGAT | 0.974

Sequence | switch fluorescence ratio
ACTTTTT | 0.998
ACTTTTTGAT | 0.975
AGAAAAACGT | 0.998
AGAAAATGAA | 1.04
AGAAAATGGA | 1.02
AGAAACCGCT | 1.29
AGAAACTGG | 1.05
AGAAAGAGAC | 1.02
AGAAAGCCAG | 0.954
AGAACAAGGG | 0.964
AGAACCTGAG | 2.05
AGAACGTGCT | 1.01
AGAACTATTC | 0.977
AGAAGACCTT | 1.09
AGAAGAGAGT | 0.96
AGAAGCAACC | 1.86
AGAAGCGAAA | 1
AGAAGCGGAC | 1.77
AGAAGCTGTT | 1.14
AGAAGGACAG | 0.983
AGAAGGTTTT | 0.957
AGAAGTGGGT | 1.02
AGAAGTTACC | 1.13
AGAATAGAAG | 0.991
AGAATATCAA | 0.993
AGAATCGCGG | 1.01

Sequence | switch fluorescence ratio
AGAATTACGG | 1.01
AGAATTCGAA | 1.02
AGAATTCGG | 1
AGAATTGCCA | 1.03
AGACAAGTTT | 0.994
AGACAATGGT | 1.02
AGACAGCCAC | 1.19
AGACAGCGGG | 1.02
AGACAGTTCT | 0.983
AGACATGGTG | 0.958
AGACCAGAAG | 0.976
AGACCCCGT | 0.995
AGACCTGTGC | 1.11
AGACGAAGTG | 0.969
AGACGACTAT | 1.12
AGACGCGGGA | 1.04
AGACGCTCTT | 1.1
AGACGCTGAT | 1.05
AGACGG | 0.928
